Reference: PMC6919601, “Identification of Plasmodium dipeptidyl aminopeptidase allosteric inhibitors by high throughput screening” (PLoS ONE, 2019)
Out of some 110,000 compounds screened, about 230 (0.21%) showed an effect of 50% or more. The list shows a part of the results.

What follows are molecules tested against DPAP1 (Plasmodium falciparum, UniProt Q8IIJ9) (assay: primary screen, percent inhibition; read by cleavage of a fluorogenic dipeptide substrate; higher = more effect of the substance).
Chain of DPAP1 (Q8IIJ9 whole entry, looked up): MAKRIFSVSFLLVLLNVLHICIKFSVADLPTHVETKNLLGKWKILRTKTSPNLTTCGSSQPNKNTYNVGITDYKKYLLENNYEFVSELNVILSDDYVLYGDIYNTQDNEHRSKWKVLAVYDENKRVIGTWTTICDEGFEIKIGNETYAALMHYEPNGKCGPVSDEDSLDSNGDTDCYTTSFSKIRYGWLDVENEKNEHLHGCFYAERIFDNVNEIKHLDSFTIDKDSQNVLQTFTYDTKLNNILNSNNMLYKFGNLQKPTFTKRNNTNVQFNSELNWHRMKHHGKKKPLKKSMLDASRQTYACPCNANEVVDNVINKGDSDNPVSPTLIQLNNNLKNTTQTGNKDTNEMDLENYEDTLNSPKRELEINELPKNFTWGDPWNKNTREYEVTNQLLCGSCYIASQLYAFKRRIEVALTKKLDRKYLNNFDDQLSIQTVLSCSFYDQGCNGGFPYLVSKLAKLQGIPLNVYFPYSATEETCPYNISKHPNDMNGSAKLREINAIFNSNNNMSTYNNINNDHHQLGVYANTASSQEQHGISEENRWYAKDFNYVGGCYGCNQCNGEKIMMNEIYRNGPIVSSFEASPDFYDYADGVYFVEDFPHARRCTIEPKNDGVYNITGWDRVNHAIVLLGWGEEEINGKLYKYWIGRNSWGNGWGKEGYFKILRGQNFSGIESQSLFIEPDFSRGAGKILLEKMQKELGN
Parameters: species or system P. falciparum D10 trophozoite lysates; single well
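Note: 30 min substrate incubation versus DMSO and 10 µM JCP410 controls.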

Row | Compound | % Inhibition @ 10 uM [%]
1 | Cc1ccc(-c2noc(CCc3ccccc3)n2)cc1 | 3.66
2 | Cc1ccc(-c2nc(CS(=O)(=O)CC(=O)NC(C)c3ccccc3)c(C)o2)cc1 (stereo not drawn) | -0.138
3 | C=CCOc1ccc(C(=O)Nc2cc(-c3ccc(C)cc3)no2)cc1 | -1.47
4 | NC(=O)c1ccccc1NS(=O)(=O)c1cc(Cl)ccc1Cl | -3.71
5 | CC[C@@H](C)[C@H](NC(=O)CC(c1ccccc1)c1ccccc1)C(=O)N[C@@H](CCc1ccccc1)C(=O)CO | 5.05
6 | CC1CCN(C(=O)C2c3ccccc3C(=O)N3CCc4ccccc4C23)CC1 (stereo not drawn) | -1.21
7 | CCc1c(C)c2c(C)nn(-c3ccccc3)c2oc1=O | -2.5
8 | CCN(CC)S(=O)(=O)c1ccc(-c2ccc(S(=O)(=O)N(CC)CC)cc2)cc1 | 3.37
9 | Cc1cc(OCC(=O)Nc2ccc(O)cc2)cc(C)c1Cl | -6.38
10 | CC1=C(C(=O)Nc2ccccc2)C(c2cccs2)C(C#N)=C(SCC(=O)NC2CC2)N1 (stereo not drawn) | 1.03
11 | COc1ccc(/C=C/C(=O)N2c3ccccc3C(C)(c3ccccc3)CC2(C)C)cc1 (stereo not drawn) | 56.6
12 | COc1ccc(/C=C2/CN(C)C/C(=C\c3ccc(OC)c(OC)c3)C2=O)cc1OC | -1.06
13 | Cc1ccc(/C=c2\sc3ncnn3c2=O)o1 | 0.222
14 | CC1=C(c2ccc(C)cc2)S(=O)(=O)N=C1NC(C)C | 0.623
15 | COc1ccc(C2C(C#N)=C(N)Oc3[nH]nc(C)c32)cc1COc1ccc(Cl)cc1 (stereo not drawn) | 3.19
16 | COc1ccc2nc3c(O)n(CCc4ccc(Cl)cc4)cnc-3c2c1 | 1.64
17 | O=C(NCCc1ccccc1)Nc1ccccc1 | 3.82
18 | CCc1ccc(NC(=O)CSc2nc(N)cc(O)n2)cc1 | -7.76
19 | CC(NC(=O)CNC(=S)N1CC2CC(C1)c1cccc(=O)n1C2)c1ccccc1 (stereo not drawn) | -7.85
20 | O=C(COc1ccccc1Cl)N(Cc1ccccc1)c1ccccn1 | 3.62
21 | CN(CC(=O)N1CCCCCC1)S(=O)(=O)c1cccc2nsnc12 | -3.23
22 | Cc1nc2ccc(S(=O)(=O)N(C)CC(=O)Nc3nc4ccc(Cl)cc4s3)cc2s1 | 15.2
23 | Cc1cc(C)cc(NC(=O)C(C)Oc2ccccc2)c1 (stereo not drawn) | -5.88
24 | Clc1ccc(Oc2cccc(CN3CCN(c4ccc(Cl)cc4)CC3)c2)cc1 | -0.261
25 | Cc1cccc(CCNC(=O)c2cn(CC(C)C)c(=O)c3c2c2ccccc2n3C)c1 | -5.77
26 | Cc1ccc(C)c(C2C(C#N)=C(N)OC3=C2C(=O)CCC3)c1 (stereo not drawn) | -5.07
27 | Cc1ccc(NC(=O)c2cccc(Cl)c2)c(Br)c1 | -0.771
